“And” between values parts separate entries of the source, which are not always exact repeats. Equal values may be shown once.
Tests used:
[1] = target: T1, full-length human Notch3 expressed on the cell surface of U2OS/hNotch3 cells (Homo sapiens, UniProt Q9UM47); assay: Cell-based ELISA, U2OS/hNotch3 cells; conditions: Table 29; two value columns; LB = lacked binding
T1 construct: U-2 OS cells stably over-expressing human or mouse full length Notch3 protein on cell surface; expressed in transfected cells; host or cells: U-2 OS (human osteosarcoma)
Protocol: Humanized hu28 and hu75, and rat-human chimeric, ch28 and ch75, anti-Notch3 antibodies were screened for cell surface Notch3 binding in a cell-based ELISA. U-2 OS cells stably over-expressing human or mouse full length Notch3 protein on cell surface (hereinafter U2OS/hNotch3 and U2OS/mNotch3, respectively) were plated at 50,000 cells/well in 96 well plates (white opaque, BD/VWR) the day before ELISA assay. On the day of the ELISA, culture media was removed from wells and serially diluted (1:3 in blocking buffer) antibody solutions were applied to the plate. Plates were incubated at room temperature for 2 hours before being washed with PBS-Mg/Ca. HRP-conjugated secondary antibody was then applied and incubated with cells for 1 hour as described above for recombinant protein ELISA. Plates were washed with PBS-Mg/Ca before being developed with Pico-Chemiluminescent developing kit (Thermal Scientific), and chemiluminescence measurements were performed per manufacturer's instructions. Data plotting and analyses were performed with Microsoft Excel and Graphpad-Prism software.
Unconjugated anti-Notch3 antibodies, anti-Notch3 ADCs and a negative control antibody (huNeg8.8) were screened for cell surface binding activity to Notch3 expressing cell lines in a cell-based ELISA. Over-expressing Notch3 cell line, U2OS/hNotch3, and endogenous Notch3 expressing cell lines, HCC2429 and MDA-MB-468, were plated at 50,000, 200,000 and 100,000 cells/well, respectively, in 96 well plates (white opaque, BD/VWR) the day before ELISA assay. On the day of the ELISA, culture media was removed from wells and serially diluted (1:3 in DPBS with calcium chloride and magnesium chloride (Ca/Mg) and 1% BSA) antibody and ADC solutions were applied to the plate. Plates were incubated at room temperature for 2 hours before washed with DPBS with Ca/Mg and 1% BSA. HRP-conjugated secondary antibody was then applied and incubated with cells for 1 hour. […]

[2] = target: T2, cell surface Notch3 on HCC2429 cells (Homo sapiens, UniProt Q9UM47); assay: Cell-based ELISA, HCC2429 cells; conditions: Table 29; LB = lacked binding
T2 construct: endogenous Notch3 expressing cell lines, HCC2429 and MDA-MB-468; endogenous in cells; host or cells: HCC2429
Protocol: Unconjugated anti-Notch3 antibodies, anti-Notch3 ADCs and a negative control antibody (huNeg8.8) were screened for cell surface binding activity to Notch3 expressing cell lines in a cell-based ELISA. Over-expressing Notch3 cell line, U2OS/hNotch3, and endogenous Notch3 expressing cell lines, HCC2429 and MDA-MB-468, were plated at 50,000, 200,000 and 100,000 cells/well, respectively, in 96 well plates (white opaque, BD/VWR) the day before ELISA assay. On the day of the ELISA, culture media was removed from wells and serially diluted (1:3 in DPBS with calcium chloride and magnesium chloride (Ca/Mg) and 1% BSA) antibody and ADC solutions were applied to the plate. Plates were incubated at room temperature for 2 hours before washed with DPBS with Ca/Mg and 1% BSA. HRP-conjugated secondary antibody was then applied and incubated with cells for 1 hour. Plates were washed with DPBS with Ca/Mg and 1% BSA before being developed with Pico-Chemiluminescent developing kit (Thermal Scientific), and chemiluminescence measurements were performed per manufacturer's instructions. Data plotting and analyses were performed with Microsoft Excel and Graphpad-Prism software.
Unconjugated cysteine mutant humanized anti-Notch3 antibodies were screened for cell surface binding activity to Notch3 expressing cell lines in a cell-based ELISA, as described in previous Examples. […] For the control antibody that lacked binding (LB), EC50 values were not generated as indicated.

[3] = target: T3, cell surface Notch3 on OVCAR3 cells (Homo sapiens, UniProt Q9UM47); assay: Cell-based ELISA, OVCAR3 cells; conditions: Table 29; LB = lacked binding
T3 construct: Notch3 endogenously expressing cells MDA-MB-468, HCC2429 and OVCAR3; endogenous in cells; host or cells: OVCAR3

[4] = test system: HCC2429 (lung cancer); assay: In vitro cytotoxicity (MTS), HCC2429; type: cell-based, human; conditions: Table 30
Protocol: (§1) The effects of anti-Notch3 ADCs were assessed on 1) cell lines endogenously expressing Notch3 protein: HCC2429 (lung cancer), OVCAR3 (ovarian cancer) and MDA-MB-468 (breast cancer), 2) cell lines engineered to over-express full length human Notch3 protein: MDA-MB-468/hNotch3 and U2OS/hNotch3, and 3) a negative control cell line (SW900) using an MTS cellular viability indicator (Promega, Madison, Wis.). These cell lines were cultured with increasing concentrations of anti-Notch3 ADCs comprising rat-human chimeric anti-Notch3 antibodies, ch28 and ch75, and humanized anti-Notch3 antibodies, hu28 and hu75, conjugated to various linker-payload combinations of the present invention. As a specificity control for the anti-Notch3-ADCs, non-targeted control-ADCs (huNeg8.8-ADCs or ch2H6-ADCs) were also tested on the same cell lines. After four days, viability of each culture was assessed. IC50 values were calculated by logistic non-linear regression, model #203 with XL fit v4.2 (IDBS, Guildford, Surry, UK) and presented as ng Ab/mL. The drug antibody ratio (DAR) is also provided.
(§2) This process generated the anti-Notch3 cysteine mutant ADCs: hu28-(L443C)-vc0101 and hu28-(L443C/κK183C)-vc0101. The activity of the anti-Notch3 cysteine mutant ADCs were assessed on cell lines endogenously expressing Notch3 protein: HCC2429 (lung cancer) and OVCAR3 (ovarian cancer) using an MTS cellular viability indicator as described in previous Examples.

[5] = test system: OVCAR3 ovarian xenografts; assay: OVCAR3 ovarian xenograft model; conditions: intravenously Q4d×4
[6] = test system: OVCAR3 (ovarian cancer); assay: In vitro cytotoxicity (MTS), OVCAR3; type: cell-based, human; conditions: Table 30
Protocol: as §1, §2

T2 sequence (Q9UM47 40-2321): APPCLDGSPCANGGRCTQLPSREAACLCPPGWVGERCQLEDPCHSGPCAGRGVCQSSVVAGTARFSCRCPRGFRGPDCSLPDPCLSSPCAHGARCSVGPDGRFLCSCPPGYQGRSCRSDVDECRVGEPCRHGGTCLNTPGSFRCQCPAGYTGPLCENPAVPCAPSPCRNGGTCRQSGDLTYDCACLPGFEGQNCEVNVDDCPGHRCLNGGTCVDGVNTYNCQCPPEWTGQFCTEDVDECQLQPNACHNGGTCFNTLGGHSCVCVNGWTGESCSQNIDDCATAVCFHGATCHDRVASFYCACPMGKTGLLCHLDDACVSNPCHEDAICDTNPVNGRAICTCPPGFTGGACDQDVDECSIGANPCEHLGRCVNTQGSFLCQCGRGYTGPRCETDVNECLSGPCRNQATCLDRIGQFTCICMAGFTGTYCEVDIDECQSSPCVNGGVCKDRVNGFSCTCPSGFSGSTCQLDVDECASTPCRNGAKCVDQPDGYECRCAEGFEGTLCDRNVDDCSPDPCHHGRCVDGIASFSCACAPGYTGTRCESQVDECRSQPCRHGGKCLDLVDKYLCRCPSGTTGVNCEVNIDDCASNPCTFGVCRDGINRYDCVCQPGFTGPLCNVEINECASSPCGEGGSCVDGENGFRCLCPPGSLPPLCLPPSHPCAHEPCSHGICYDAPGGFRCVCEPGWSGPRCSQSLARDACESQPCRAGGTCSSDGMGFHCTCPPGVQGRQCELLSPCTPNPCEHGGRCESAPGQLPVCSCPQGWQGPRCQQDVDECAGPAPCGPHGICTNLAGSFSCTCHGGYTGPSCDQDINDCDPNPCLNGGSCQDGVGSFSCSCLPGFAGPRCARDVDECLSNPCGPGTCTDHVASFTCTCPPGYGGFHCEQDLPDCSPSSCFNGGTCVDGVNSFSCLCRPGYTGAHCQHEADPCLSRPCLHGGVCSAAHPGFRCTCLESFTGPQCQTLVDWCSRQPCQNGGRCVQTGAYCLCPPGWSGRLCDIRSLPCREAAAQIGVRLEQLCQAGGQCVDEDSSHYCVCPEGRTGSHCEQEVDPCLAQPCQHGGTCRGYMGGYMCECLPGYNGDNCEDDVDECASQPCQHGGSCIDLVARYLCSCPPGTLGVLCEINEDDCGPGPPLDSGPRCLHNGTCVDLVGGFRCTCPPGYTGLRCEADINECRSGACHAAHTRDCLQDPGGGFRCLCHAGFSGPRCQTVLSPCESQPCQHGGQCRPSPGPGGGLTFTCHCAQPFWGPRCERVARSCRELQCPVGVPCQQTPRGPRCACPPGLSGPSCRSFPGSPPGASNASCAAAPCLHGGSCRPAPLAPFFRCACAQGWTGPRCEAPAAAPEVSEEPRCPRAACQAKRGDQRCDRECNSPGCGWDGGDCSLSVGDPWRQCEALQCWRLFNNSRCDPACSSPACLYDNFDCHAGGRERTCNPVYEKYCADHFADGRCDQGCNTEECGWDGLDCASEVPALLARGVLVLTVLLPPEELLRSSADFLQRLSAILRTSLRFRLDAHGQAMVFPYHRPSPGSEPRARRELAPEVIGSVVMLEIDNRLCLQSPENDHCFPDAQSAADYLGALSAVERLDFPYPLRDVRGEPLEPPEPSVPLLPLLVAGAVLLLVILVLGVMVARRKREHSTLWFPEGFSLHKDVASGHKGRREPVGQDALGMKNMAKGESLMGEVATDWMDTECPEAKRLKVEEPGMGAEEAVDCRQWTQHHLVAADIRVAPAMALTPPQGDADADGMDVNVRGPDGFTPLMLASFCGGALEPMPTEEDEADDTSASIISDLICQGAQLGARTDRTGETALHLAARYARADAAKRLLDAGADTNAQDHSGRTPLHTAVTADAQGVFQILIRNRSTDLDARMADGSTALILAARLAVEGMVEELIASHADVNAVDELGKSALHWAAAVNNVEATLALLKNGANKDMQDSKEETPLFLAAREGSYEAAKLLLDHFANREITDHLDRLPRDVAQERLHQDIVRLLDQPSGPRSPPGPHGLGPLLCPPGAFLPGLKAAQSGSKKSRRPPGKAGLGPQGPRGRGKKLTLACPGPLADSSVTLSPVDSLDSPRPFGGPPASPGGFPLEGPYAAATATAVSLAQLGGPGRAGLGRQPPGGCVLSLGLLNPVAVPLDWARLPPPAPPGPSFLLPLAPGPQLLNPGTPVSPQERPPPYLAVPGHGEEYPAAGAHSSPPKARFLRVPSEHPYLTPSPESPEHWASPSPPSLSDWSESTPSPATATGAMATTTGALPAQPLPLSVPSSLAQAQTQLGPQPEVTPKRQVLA
T3 sequence (Q9UM47 40-2321): as above
T1 sequence (Q9UM47 40-2321): as above

B1: hu28-(L443C): hu28 with site-specific cysteine substitution L443C in the IgG1 heavy chain constant domain (antibody)
heavy: EVQLVESGGGLVQPGGSLRLSCAASGFTFRDYGMTWVRQAPGKGLEWVAYISSGSNYIYYAEAVKGRFTISRDNAKNSLYLQMNSLRAEDTAVYYCARRGPFVLDAWGQGTLVTVSSASTKGPSVFPLAPSSKSTSGGTAALGCLVKDYFPEPVTVSWNSGALTSGVHTFPAVLQSSGLYSLSSVVTVPSSSLGTQTYICNVNHKPSNTKVDKKV[letters of human IgG1 Fc with L443C (EU numbers) omitted]
light: DIQMTQSPSSLSASVGDRVTITCKASQSINRYLHWYQQKPGKAPKLLIYNANGLQTGVPSRFSGSGSGTDFTLTISSLQPEDFATYYCLQHNTWPDTFGGGTKVEIKRTVAAPSVFIFPPSDEQLKSGTASVVCLLNNFYPREAKVQWKVDNALQSGNSQESVTEQDSKDSTYSLSSTLTLSKADYEKHKVYACEVTHQGLSSPVTKSFNRGEC
EC50 [1]: 0.28 nM and 0.3 nM | EC50 [2]: 0.08 nM | EC50 [3]: 0.2 nM

B2: hu28-(L443C/κK183C): hu28 with cysteine substitutions L443C (heavy chain) and κK183C (kappa light chain) (antibody)
heavy: EVQLVESGGGLVQPGGSLRLSCAASGFTFRDYGMTWVRQAPGKGLEWVAYISSGSNYIYYAEAVKGRFTISRDNAKNSLYLQMNSLRAEDTAVYYCARRGPFVLDAWGQGTLVTVSSASTKGPSVFPLAPSSKSTSGGTAALGCLVKDYFPEPVTVSWNSGALTSGVHTFPAVLQSSGLYSLSSVVTVPSSSLGTQTYICNVNHKPSNTKVDKKV[letters of human IgG1 Fc with L443C (EU numbers) omitted]
light: DIQMTQSPSSLSASVGDRVTITCKASQSINRYLHWYQQKPGKAPKLLIYNANGLQTGVPSRFSGSGSGTDFTLTISSLQPEDFATYYCLQHNTWPDTFGGGTKVEIKRTVAAPSVFIFPPSDEQLKSGTASVVCLLNNFYPREAKVQWKVDNALQSGNSQESVTEQDSKDSTYSLSSTLTLSCADYEKHKVYACEVTHQGLSSPVTKSFNRGEC
EC50 [1]: 0.38 nM and 0.27 nM | EC50 [2]: 0.11 nM | EC50 [3]: 0.2 nM

B3: hu28-(L443C/K392C): hu28 with cysteine substitutions L443C and K392C in the heavy chain constant domain (antibody)
heavy: EVQLVESGGGLVQPGGSLRLSCAASGFTFRDYGMTWVRQAPGKGLEWVAYISSGSNYIYYAEAVKGRFTISRDNAKNSLYLQMNSLRAEDTAVYYCARRGPFVLDAWGQGTLVTVSSASTKGPSVFPLAPSSKSTSGGTAALGCLVKDYFPEPVTVSWNSGALTSGVHTFPAVLQSSGLYSLSSVVTVPSSSLGTQTYICNVNHKPSNTKVDKKV[letters of human IgG1 Fc with K392C L443C (EU numbers) omitted]
light: DIQMTQSPSSLSASVGDRVTITCKASQSINRYLHWYQQKPGKAPKLLIYNANGLQTGVPSRFSGSGSGTDFTLTISSLQPEDFATYYCLQHNTWPDTFGGGTKVEIKRTVAAPSVFIFPPSDEQLKSGTASVVCLLNNFYPREAKVQWKVDNALQSGNSQESVTEQDSKDSTYSLSSTLTLSKADYEKHKVYACEVTHQGLSSPVTKSFNRGEC
EC50 [1]: 0.31 nM and 0.29 nM | EC50 [2]: 0.11 nM | EC50 [3]: 0.31 nM

B4: hu28-(L443C)-vc0101 (conjugate)
heavy: EVQLVESGGGLVQPGGSLRLSCAASGFTFRDYGMTWVRQAPGKGLEWVAYISSGSNYIYYAEAVKGRFTISRDNAKNSLYLQMNSLRAEDTAVYYCARRGPFVLDAWGQGTLVTVSSASTKGPSVFPLAPSSKSTSGGTAALGCLVKDYFPEPVTVSWNSGALTSGVHTFPAVLQSSGLYSLSSVVTVPSSSLGTQTYICNVNHKPSNTKVDKKV[letters of human IgG1 Fc with L443C (EU numbers) omitted]
light: DIQMTQSPSSLSASVGDRVTITCKASQSINRYLHWYQQKPGKAPKLLIYNANGLQTGVPSRFSGSGSGTDFTLTISSLQPEDFATYYCLQHNTWPDTFGGGTKVEIKRTVAAPSVFIFPPSDEQLKSGTASVVCLLNNFYPREAKVQWKVDNALQSGNSQESVTEQDSKDSTYSLSSTLTLSKADYEKHKVYACEVTHQGLSSPVTKSFNRGEC
IC50 (ng Ab/ml), HCC2429 [4]: 20308 ng Ab/ml and 16879 ng Ab/ml and 14324 ng Ab/ml | tumor volume ([5]; DAY 2, dose 1 mg/kg): 235 mm3 | tumor volume ([5]; DAY 2, dose 3 mg/kg): 244 mm3 | tumor volume ([5]; DAY 6, dose 1 mg/kg): 295 mm3 | tumor volume ([5]; DAY 6, dose 3 mg/kg): 259 mm3 | tumor volume ([5]; DAY 9, dose 1 mg/kg): 346 mm3 | tumor volume ([5]; DAY 9, dose 3 mg/kg): 240 mm3 | tumor volume ([5]; DAY 12, dose 1 mg/kg): 359 mm3 | tumor volume ([5]; DAY 12, dose 3 mg/kg): 198 mm3 | tumor volume ([5]; DAY 15, dose 1 mg/kg): 349 mm3 | tumor volume ([5]; DAY 15, dose 3 mg/kg): 142 mm3 | tumor volume ([5]; DAY 19, dose 1 mg/kg): 383 mm3 | tumor volume ([5]; DAY 19, dose 3 mg/kg): 115 mm3 | tumor volume ([5]; DAY 22, dose 1 mg/kg): 427 mm3 | tumor volume ([5]; DAY 22, dose 3 mg/kg): 94 mm3 | tumor volume ([5]; DAY 26, dose 1 mg/kg): 519 mm3 | tumor volume ([5]; DAY 26, dose 3 mg/kg): 85 mm3 | tumor volume ([5]; DAY 29, dose 1 mg/kg): 624 mm3 | tumor volume ([5]; DAY 29, dose 3 mg/kg): 97 mm3 | tumor volume ([5]; DAY 33, dose 1 mg/kg): 789 mm3 | tumor volume ([5]; DAY 33, dose 3 mg/kg): 114 mm3 | tumor volume ([5]; DAY 36, dose 1 mg/kg): 942 mm3 | tumor volume ([5]; DAY 36, dose 3 mg/kg): 146 mm3 | tumor volume ([5]; DAY 40, dose 1 mg/kg): 1046 mm3 | tumor volume ([5]; DAY 40, dose 3 mg/kg): 205 mm3 | tumor volume ([5]; DAY 42, dose 1 mg/kg): 1130 mm3 | tumor volume ([5]; DAY 42, dose 3 mg/kg): 246 mm3 | tumor volume ([5]; DAY 47, dose 1 mg/kg): 1493 mm3 | tumor volume ([5]; DAY 47, dose 3 mg/kg): 378 mm3 | tumor volume ([5]; DAY 50, dose 3 mg/kg): 452 mm3 | tumor volume ([5]; DAY 54, dose 3 mg/kg): 604 mm3 | tumor volume ([5]; DAY 57, dose 3 mg/kg): 826 mm3 | tumor volume ([5]; DAY 61, dose 3 mg/kg): 820 mm3 | tumor volume ([5]; DAY −2, dose 1 mg/kg): 160 mm3 | tumor volume ([5]; DAY −2, dose 3 mg/kg): 160 mm3 | IC50 (ng Ab/ml), OVCAR3 [6]: 13129 ng Ab/ml and 15840 ng Ab/ml and 12189 ng Ab/ml

— patent US9433687B2, “Anti-Notch3 antibodies and antibody-drug conjugates” (Pfizer Inc., priority 2012, dated 2016)
